According to the supplement of paper PMC8728848:
Some of the results follow.

Legend:
Test in all cases: glycan array binding signal (z-score within array); higher = stronger binding
Conditions in all cases: glycan notation: IUPAC condensed, linker removed
[1] = biological target: Gal(a1-3)Gal(b1-4)GlcNAc
Procedure, shortened: (§1)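 The binding signal is a Z-score computed within each array. Data were drawn from 3228 arrays in the Consortium for Functional Glycomics database, restricted to those with a known protein sequence. Scores were averaged over arrays of the same protein sequence at different concentrations or buffers, and over linkers, and negative values can be taken as non-binding.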

[2] = biological target: Gal(a1-3)Gal(b1-4)GlcNAc(b1-2)Man
Procedure, shortened: as §1

[3] = biological target: Gal(a1-3)Gal(b1-4)GlcNAc(b1-2)Man(a1-3)[Gal(a1-3)Gal(b1-4)GlcNAc(b1-2)Man(a1-6)]Man(b1-4)GlcNAc(b1-4)GlcNAc
Procedure, shortened: as §1

[4] = biological target: Gal(a1-3)Gal(b1-4)GlcNAc(b1-3)GalNAc
Procedure, shortened: as §1

[5] = biological target: Gal(a1-3)Gal(b1-4)GlcNAc(b1-6)GalNAc
Procedure, shortened: as §1

[6] = biological target: Gal(a1-3)Gal(b1-4)[Fuc(a1-3)]GlcNAc
Procedure, shortened: as §1

[7] = biological target: Gal(a1-3)Gal(b1-4)[Fuc(a1-3)]GlcNAc(b1-2)Man(a1-3)[Gal(a1-3)Gal(b1-4)[Fuc(a1-3)]GlcNAc(b1-2)Man(a1-6)]Man(b1-4)GlcNAc(b1-4)GlcNAc
Procedure, shortened: as §1

[8] = biological target: Gal(a1-3)GalNAc
Procedure, shortened: as §1

[9] = biological target: Gal(a1-3)[Gal(a1-4)]Gal(b1-4)GlcNAc
Procedure, shortened: as §1

[10] = biological target: Gal(a1-4)Gal(b1-3)GlcNAc(b1-2)Man(a1-3)[Gal(a1-4)Gal(b1-3)GlcNAc(b1-2)Man(a1-6)]Man(b1-4)GlcNAc(b1-4)GlcNAc
Procedure, shortened: as §1

[11] = biological target: Gal(a1-4)Gal(b1-4)Glc
Procedure, shortened: as §1

[12] = biological target: Gal(a1-4)Gal(b1-4)GlcNAc
Procedure, shortened: as §1

[13] = biological target: Gal(a1-4)Gal(b1-4)GlcNAc(b1-2)Man(a1-3)[Gal(a1-4)Gal(b1-4)GlcNAc(b1-2)Man(a1-6)]Man(b1-4)GlcNAc(b1-4)GlcNAc
Procedure, shortened: as §1

[14] = biological target: Gal(a1-4)Gal(b1-4)GlcNAc(b1-3)Gal(b1-4)Glc
Procedure, shortened: as §1

[15] = biological target: Gal(a1-4)GlcNAc
Procedure, shortened: as §1

[16] = biological target: Gal(a1-6)Glc
Procedure, shortened: as §1

[17] = biological target: Gal(b1-2)Gal
Procedure, shortened: as §1

[18] = biological target: Gal(b1-3)Gal
Procedure, shortened: as §1

[19] = biological target: Gal(b1-3)Gal(b1-4)GlcNAc
Procedure, shortened: as §1

[20] = biological target: Gal(b1-3)GalNAc
Procedure, shortened: as §1

[21] = biological target: Gal(b1-3)GalNAc(a1-3)[Fuc(a1-2)]Gal(b1-4)Glc
Procedure, shortened: as §1

[22] = biological target: Gal(b1-3)GalNAc(a1-3)[Fuc(a1-2)]Gal(b1-4)GlcNAc
Procedure, shortened: as §1

[23] = biological target: Gal(b1-3)GalNAc(b1-3)Gal
Procedure, shortened: as §1

[24] = biological target: Gal(b1-3)GalNAc(b1-3)Gal(a1-4)Gal(b1-4)Glc
Procedure, shortened: as §1

[25] = biological target: Gal(b1-3)GalNAc(b1-4)Gal(b1-4)Glc
Procedure, shortened: as §1

[26] = biological target: Gal(b1-3)GalNAc(b1-4)[Neu5Ac(a2-3)]Gal(b1-4)Glc
Procedure, shortened: as §1

[27] = biological target: Gal(b1-3)GlcNAc
Procedure, shortened: as §1

[28] = biological target: Gal(b1-3)GlcNAc(a1-3)Gal(b1-4)GlcNAc
Procedure, shortened: as §1

[29] = biological target: Gal(b1-3)GlcNAc(a1-6)Gal(b1-4)GlcNAc
Procedure, shortened: as §1

[30] = biological target: Gal(b1-3)GlcNAc(b1-2)Man
Procedure, shortened: as §1

[31] = biological target: Gal(b1-3)GlcNAc(b1-2)Man(a1-3)[Gal(b1-3)GlcNAc(b1-2)Man(a1-6)]Man(b1-4)GlcNAc(b1-4)GlcNAc
Procedure, shortened: as §1

[32] = biological target: Gal(b1-3)GlcNAc(b1-2)Man(a1-3)[Gal(b1-3)GlcNAc(b1-2)Man(a1-6)]Man(b1-4)GlcNAc(b1-4)[Fuc(a1-6)]GlcNAc
Procedure, shortened: as §1

[33] = biological target: Gal(b1-3)GlcNAc(b1-2)Man(a1-3)[GlcNAc(b1-4)][Gal(b1-3)GlcNAc(b1-2)Man(a1-6)]Man(b1-4)GlcNAc(b1-4)GlcNAc
Procedure, shortened: as §1

[34] = biological target: Gal(b1-3)GlcNAc(b1-2)[Gal(b1-3)GlcNAc(b1-6)]Man(a1-6)[Gal(b1-3)GlcNAc(b1-2)Man(a1-3)]Man(b1-4)GlcNAc(b1-4)GlcNAc
Procedure, shortened: as §1

[35] = biological target: Gal(b1-3)GlcNAc(b1-3)Gal(b1-3)GlcNAc
Procedure, shortened: as §1

[36] = biological target: Gal(b1-3)GlcNAc(b1-3)Gal(b1-4)Glc
Procedure, shortened: as §1

[37] = biological target: Gal(b1-3)GlcNAc(b1-3)Gal(b1-4)GlcNAc
Procedure, shortened: as §1

[38] = biological target: Gal(b1-3)GlcNAc(b1-3)Gal(b1-4)GlcNAc(b1-2)Man(a1-3)[Gal(b1-3)GlcNAc(b1-3)Gal(b1-4)GlcNAc(b1-2)Man(a1-6)]Man(b1-4)GlcNAc(b1-4)GlcNAc
Procedure, shortened: as §1

[39] = biological target: Gal(b1-3)GlcNAc(b1-3)Gal(b1-4)GlcNAc(b1-2)[Gal(b1-3)GlcNAc(b1-3)Gal(b1-4)GlcNAc(b1-6)]Man(a1-6)[Gal(b1-3)GlcNAc(b1-3)Gal(b1-4)GlcNAc(b1-2)Man(a1-3)]Man(b1-4)GlcNAc(b1-4)[Fuc(a1-6)]GlcNAc
Procedure, shortened: as §1

[40] = biological target: Gal(b1-3)GlcNAc(b1-3)Gal(b1-4)GlcNAc(b1-3)Gal(b1-4)GlcNAc(b1-2)[Gal(b1-3)GlcNAc(b1-3)Gal(b1-4)GlcNAc(b1-3)Gal(b1-4)GlcNAc(b1-6)]Man(a1-6)[Gal(b1-3)GlcNAc(b1-3)Gal(b1-4)GlcNAc(b1-3)Gal(b1-4)GlcNAc(b1-2)Man(a1-3)]Man(b1-4)GlcNAc(b1-4)[Fuc(a1-6)]GlcNAc
Procedure, shortened: as §1

[41] = biological target: Gal(b1-3)GlcNAc(b1-3)Gal(b1-4)GlcNAc(b1-6)[Gal(b1-3)GlcNAc(b1-3)]Gal(b1-4)Glc
Procedure, shortened: as §1

[42] = biological target: Gal(b1-3)GlcNAc(b1-3)Gal(b1-4)[Fuc(a1-3)]GlcNAc
Procedure, shortened: as §1

[43] = biological target: Gal(b1-3)GlcNAc(b1-3)Gal(b1-4)[Fuc(a1-3)]GlcNAc(b1-6)[Gal(b1-3)GlcNAc(b1-3)]Gal(b1-4)Glc
Procedure, shortened: as §1

[44] = biological target: Gal(b1-3)GlcNAc(b1-3)GalNAc
Procedure, shortened: as §1

[45] = biological target: Gal(b1-3)GlcNAc(b1-6)Gal(b1-4)GlcNAc
Procedure, shortened: as §1

B1: DrGal3 (Danio rerio) (protein)
chain: MDLSDALDAPPQQNNQQAGGPVWPGQPANPVWPGQPANPTWPGQPNQPAWPGQPNQQWPGQPGQPTAPGWPGPAPQTGPYGAPGQAPQVLTVPLDFPLQNGAYNKMLITINGEVKPNAKQFTVNLRRGNDIAFHINPRFSEGGKPVIVRNSMIGNNWGREERELPSFPFVPGKPFEMKILITDTEYKVAVNKSHLLEFKHRVFELNQITGLSIYNDVTLSTVNVETLQ
[1]
  glycan array binding signal (z-score): -0.198
[2]
  glycan array binding signal (z-score): -0.211
[3]
  glycan array binding signal (z-score): -0.088
[4]
  glycan array binding signal (z-score): -0.195
[5]
  glycan array binding signal (z-score): -0.146
[6]
  glycan array binding signal (z-score): -0.273
[7]
  glycan array binding signal (z-score): -0.205
[8]
  glycan array binding signal (z-score): -0.007
[9]
  glycan array binding signal (z-score): 0.637
[10]
  glycan array binding signal (z-score): -0.265
[11]
  glycan array binding signal (z-score): -0.111
[12]
  glycan array binding signal (z-score): -0.224
[13]
  glycan array binding signal (z-score): -0.251
[14]
  glycan array binding signal (z-score): -0.152
[15]
  glycan array binding signal (z-score): -0.242
[16]
  glycan array binding signal (z-score): -0.264
[17]
  glycan array binding signal (z-score): -0.217
[18]
  glycan array binding signal (z-score): -0.255
[19]
  glycan array binding signal (z-score): -0.238
[20]
  glycan array binding signal (z-score): -0.219
[21]
  glycan array binding signal (z-score): -0.229
[22]
  glycan array binding signal (z-score): 0.049
[23]
  glycan array binding signal (z-score): -0.183
[24]
  glycan array binding signal (z-score): -0.255
[25]
  glycan array binding signal (z-score): -0.151
[26]
  glycan array binding signal (z-score): -0.241
[27]
  glycan array binding signal (z-score): -0.234
[28]
  glycan array binding signal (z-score): -0.214
[29]
  glycan array binding signal (z-score): -0.234
[30]
  glycan array binding signal (z-score): -0.19
[31]
  glycan array binding signal (z-score): -0.227
[32]
  glycan array binding signal (z-score): -0.264
[33]
  glycan array binding signal (z-score): -0.206
[34]
  glycan array binding signal (z-score): -0.233
[35]
  glycan array binding signal (z-score): -0.209
[36]
  glycan array binding signal (z-score): 0.006
[37]
  glycan array binding signal (z-score): -0.23
[38]
  glycan array binding signal (z-score): -0.138
[39]
  glycan array binding signal (z-score): -0.136
[40]
  glycan array binding signal (z-score): 0.998
[41]
  glycan array binding signal (z-score): -0.233
[42]
  glycan array binding signal (z-score): -0.222
[43]
  glycan array binding signal (z-score): -0.243
[44]
  glycan array binding signal (z-score): -0.22
[45]
  glycan array binding signal (z-score): -0.282
